Laboratory results reported in PubChem BioAssay AID1963576 (National Center for Advancing Translational Sciences (NCATS), 2024).
The whole screen tested about 46,000 compounds, of which about 60 (0.1%) were called active. Another 3% or so got no clear call; they are omitted. Calls come from the whole dose curve; as a rule, active = well fitted inhibition curve with a large enough effect; inconclusive = small, poorly fitted or top-dose-only effect; inactive = no such curve, though single readings can be large or run the other way. Some of the results follow.

Experiment: Primary qHTS assay for Inhibitors of ovarian cancer metastasis using an organotypic tumor microenvironment (TME) model.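 For activity change, negative = inhibition: plate controls were DMSO wells for no effect and tomatine positive control wells for full effect.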 Note: nearly all actives have a fitted effect of over 65% in size.
Conditions: SKOV3ip1-GFP adhesion/invasion on 3D omental model, fluorescence; series mostly up to 45.8 µM; activity change, negative = inhibition: at the top concentration
Method in brief: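 Primary human omental fibroblast/mesothelial 3D culture pre-formed 48 h. SKOV3ip1-GFP cells added with compounds (0.36-46 umol/L), incubated 2 h RT/16 h 37 C, fixed; GFP cells quantified at 488/509 nm.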

outcome, inactive:
COc1ccc(-c2cc(C(F)(F)F)n3nc(C(=O)Nc4cc(Cl)cc(Cl)c4)cc3n2)cc1
Cc1coc2cc3oc(=O)c(CCC(=O)NCc4ccc(Cl)cc4)c(C)c3cc12
CCOc1ccc(OC(=O)c2cn(-c3ccc(C)cc3)c(=O)c3ccccc23)cc1
COc1cc(Cl)c(C)cc1NC(=O)c1sc2nc3n(c(=O)c2c1C)CCCCC3
COc1cc(C2C(=O)N(C3CCCCC3)CC(=O)N2Cc2ccc(C)cc2)ccc1OC(C)C (configuration not stated)
CCCC(=O)N1CCN(c2nc3c(OC)ccc(C)c3s2)CC1
CC(=O)c1ccc(S(=O)(=O)Nc2cccc(-c3ccc(N4CCCCCC4)nn3)c2)cc1
Cc1ccc(Cc2nc3ccccc3nc2SCC(=O)Nc2ccc3c(c2)OCO3)cc1
Cc1ccc(CNC(=O)C(CC(C)C)NS(=O)(=O)c2ccc3c(c2)oc(=O)n3C)cc1 (configuration not stated)
Cc1c(S(=O)(=O)c2cccc(Cl)c2)nnn1-c1cccc(C(F)(F)F)c1
CCc1nnc2c3ccccc3nc(Nc3ccc(C(C)=O)cc3)n12
CCOC(=O)c1c(N)n(-c2ccc(C)c(Cl)c2)c2nc3ccccc3nc12
CC(C)OCCCNC(=O)c1ccc2c(c1)N(Cc1c(F)cccc1Cl)C(=O)c1ccccc1S2
CCOc1ccccc1NC(=O)CSc1nc2c(oc3ccccc32)c(=O)n1-c1ccc(C)c(C)c1
COc1cc(OC)c(OC)cc1/C=C/c1nc2cc3ccccc3cc2c(=O)n1-c1ccc(Cl)cc1
CCOC(=O)C1=C(CS(=O)(=O)c2cccc(C(F)(F)F)c2)NC(=O)NC1c1cccc(OC)c1 (configuration not stated)
CC1=C(c2ccc(C)c(C)c2)S(=O)(=O)N(Cc2ccc(C(=O)NCc3cccc(C)c3)cc2)C1=O
CCOc1ccc(NC(=O)c2ccc(NC(=O)N3CCSc4ncccc43)cc2)cc1
CCC(=O)N1CCc2cc(Br)cc(S(=O)(=O)N3CCC(C(=O)NCCCOC(C)C)CC3)c21
Cc1cccc(N2CCN(c3ncnc4c3nc3n4CCCCC3)CC2)c1C
CC(=O)c1ccc(N2CCN(c3ncnc4c3c(-c3ccccc3)cn4-c3cccc(C)c3)CC2)cc1

Activity change, negative = inhibition, inactive:
COc1ccc(-c2nc3c4ccccc4n(CC(=O)Nc4cc(F)ccc4F)c(=O)n3n2)cc1 -13.2%
CCn1cc(S(=O)(=O)c2cc(C)cc(C)c2)c(=O)c2cc(F)c(N3CCCC3)cc21 -25.9%
COc1ccc(N2CCN(S(=O)(=O)CCNC(=O)Cc3ccc(Cl)cc3)CC2)cc1 15.7%
CCOC(=O)C1CCN(C(=O)Cn2nc(C)n3c(cc4cc(F)ccc43)c2=O)CC1 7.32%
CCCCN1C(=O)CN(C2CCCCCC2)C(=O)C1c1ccc(OCCC)c(OC)c1 (configuration not stated) -1.26%
O=c1cc(N2CCN(c3ccc(F)cc3)CC2)[nH]c(=O)n1-c1ccc(Br)cc1 -10.5%
CCOC(=O)c1c(NC(=O)c2nc(SC(C)C)ncc2Cl)sc2c1CCCC2 10.8%
COc1ccc(OC)c(NC(=O)CSC2=Nc3ccccc3C3=NC(CC(=O)NCc4ccc5c(c4)OCO5)C(=O)N23)c1 (configuration not stated) 1.38%
Cc1ccccc1Cn1c(=O)n(Cc2ccc(Cl)cc2)c(=O)c2cccnc21 0.944%
CC(=O)c1c(C)oc2c(Cl)cc(NS(=O)(=O)c3ccc(Cl)cc3)cc12 9.32%
COc1cc(NC(=O)N2CCC(CN3CCCC3)CC2)cc(OC)c1OC -1.79%
CN(C)c1ccc(C(CNS(=O)(=O)c2ccccc2)N2CCc3ccccc32)cc1 (configuration not stated) 2.64%
COc1cc(C(=O)NCC(c2cccnc2)N2CCc3ccccc32)cc(OC)c1OC (configuration not stated) -0.107%
CCOC(=O)c1c(-c2ccc(Br)cc2)csc1NC(=O)c1ccccc1F 0.925%
O=C(CSc1nccn1-c1ccc(F)cc1)Nc1ccc(OC(F)(F)F)cc1 -8.64%
CCN(CC)C(=O)Cn1c(=O)n(Cc2ccc(C(=O)NCc3ccccc3Cl)cc2)c(=O)c2ccccc21 9.04%
COc1cc2c(cc1OC)C(COc1ccc3c(C)cc(=O)oc3c1)N(C(=O)c1ccc(Cl)cc1)CC2 (configuration not stated) 17.4%
O=C1CN(C(=O)c2ccccc2C(F)(F)F)C(c2ccccc2)c2cc(F)ccc2N1 (configuration not stated) -9.19%
CCCNc1c(NC(=O)c2ccc(OCCC)cc2)c(=O)oc2ccccc12 -1.79%
O=C1[C@@H]2CSC(c3ccc(C(F)(F)F)cc3)N2C(=O)N1c1ccccc1 (some centres not stated) 3.38%
Cc1ccc2c(C)c(C(=O)N(Cc3ccc(Cl)cc3)C3CCS(=O)(=O)C3)oc2c1 (configuration not stated) -2.54%
CCOc1ccc(-n2c(SCC(=O)N3CCOCC3)nc3c([nH]c4ccccc43)c2=O)cc1 38.8%
CC(C)(C)OC(=O)N1CCC(c2c(C(=O)N3CCN(C(=O)c4ccco4)CC3)cnn2-c2cccc(F)c2)CC1 -10.1%
COc1cc(C(=O)Nc2ccc3nc(SCc4ccc(C)cc4)sc3c2)cc(OC)c1OC -6.16%
Cc1ccc(Cl)cc1-n1ncc2c(NC3CCCCCC3)ncnc21 -31.4%
Cc1ccc(-n2nc(C(=O)N3CCC(C)CC3)c(=O)n(C)c2=O)cc1 2.81%
O=C(Nc1cccc(F)c1)c1ccc2snnc2c1 23.3%
Cc1ccc(C)c(Nc2nnc(-n3nc(C)cc3C)c3ccccc23)c1 2.38%
O=C(NC1CC(=O)N(c2cccc(F)c2)C1)c1ccc(Br)o1 (configuration not stated) 16.1%
CSc1ccc(CCNC(=O)CCc2c(C)nc3c(c(C)nn3-c3ccccc3)c2C)cc1 2.73%
Cc1nc(N2CCOCC2)c2c(C(=O)Nc3cccc(C(F)(F)F)c3)c(C)oc2n1 -0.102%
COc1ccc(CNC(=O)C2CCN(Cc3nc(-c4ccc(Cl)cc4)oc3C)CC2)cc1 -8.7%
Cc1ccc(S(=O)(=O)NCCS(=O)(=O)N2CCN(c3ccccc3)CC2)cc1 -4.35%
O=C(O)c1cc(-n2c(/C=C\c3ccc(F)cc3)nc3ccccc3c2=O)ccc1Cl -3.29%
Cc1cccc(N2CCN(CCNC(=O)C3COc4ccccc4C3)CC2)c1C (configuration not stated) 2.5%
O=C(NCc1ccc(Cl)cc1)c1cnc(N2CCCCC2)c2ccccc12 -10.1%
CC(=O)c1ccc(NC(=O)CCSc2nc(-c3ccco3)cc(C(F)(F)F)n2)cc1 -12.1%
CCOC(=O)Cc1ccc(NC(=O)N2CCOc3ccc(C)cc32)cc1 5.69%
COc1ccc(OC)c(NC(=O)c2noc3c2CCCC3)c1 1.49%
CC(C)c1ccc(NC(=O)C2CCCN(S(=O)(=O)c3cccc4cccnc34)C2)cc1 (configuration not stated) 10.6%
COC(=O)c1c(-c2ccc(Cl)cc2)noc1N1CCN(c2ccc(C)cc2C)CC1 2.7%
Cc1ccc(OC(C)C(=O)Nc2nonc2-c2ccc(Br)cc2)cc1C (configuration not stated) -14.3%
O=C(Nc1c(Cl)cccc1Cl)c1cc(-c2ccc3c(c2)OCO3)on1 -8.11%
CCOC(=O)Cn1c(=O)oc2cc(S(=O)(=O)N3CCN(c4cccc(C)c4C)CC3)ccc21 12.2%
Cc1ccc2nc(N(Cc3cccnc3)C(=O)COc3ccccc3)sc2c1 -4.11%
CCOC(=O)c1cc(S(=O)(=O)N2CCN(c3ccccc3)CC2)[nH]n1 17.9%
Cc1ccc(Oc2c(C(F)(F)F)oc3c(CN4CCCCC4C)c(O)ccc3c2=O)cc1 (configuration not stated) 4.7%
COc1ccc(C(=O)NCC(c2cccnc2)N2CCc3ccccc32)cc1 (configuration not stated) 10.4%
CCOC(=O)CC(NS(=O)(=O)c1ccc2[nH]c3c(c2c1)CCCC3)c1ccccc1Cl (configuration not stated) -5.01%
COc1ccc(-c2nn3c(=O)cc(CN4CCN(C(=O)c5ccc(C(C)(C)C)cc5)CC4)nc3s2)cc1 -1.37%
Cc1ccc(Nc2c(-c3c[nH]c4ccccc34)nc3cc(C)ccn23)cc1 1.36%
CCC(C(=O)Nc1cc(Cl)ccc1OC)n1nc(-c2ccccc2)ccc1=O (configuration not stated) 57.4%
Cc1cccc(NC(=O)c2oc3ccccc3c2NC(=O)Cc2coc3c(C)c(C)ccc23)c1 -8.12%
O=C(CCC1N=C2c3ccccc3N=C(SCc3ccc(F)cc3)N2C1=O)NCc1cccs1 (configuration not stated) -1.59%
COc1cc(C(CC(=O)NCc2ccc(F)cc2)N2Cc3ccccc3C2=O)cc(OC)c1OC (configuration not stated) -12.4%
COc1ccc(NC(=O)Cn2c(=O)n(-c3ccc(OC)c(OC)c3)c(=O)c3ccccc32)cc1 32.2%
CCCCN(C)c1nc2c(S(=O)(=O)c3ccc(CC)cc3)nnn2c2ccc(Cl)cc12 4.28%
COc1ccccc1NC(=O)C1=C(C)Nc2c(C(=O)Nc3ccc(F)cc3)cnn2C1c1cccc([N+](=O)[O-])c1 (configuration not stated) -23.8%
CC(=O)N1CCc2cc(Br)cc(S(=O)(=O)N3CCN(c4cccc(C(F)(F)F)c4)CC3)c21 -3.17%
CCCCOc1ccc(-c2nn(-c3ccccc3)cc2C2NC(=O)NC(C)=C2C(=O)OC)cc1 (configuration not stated) 5.74%
O=C(C1CC1)N1CCc2cc(Br)cc(S(=O)(=O)N3CCN(c4cccc(C(F)(F)F)c4)CC3)c21 -5.85%
COc1ccc(Cl)cc1C(=O)Nc1sc2c(c1C(=O)OC(C)C)CCCC2 6.41%
COc1ccccc1CNC(=O)C1CCCN(c2nc3ccccc3n3cccc23)C1 (configuration not stated) -1.48%
COc1ccc(C2CC(=O)c3cc(-c4nc(-c5cccc(Cl)c5)cs4)c(=O)[nH]c3C2)cc1OC (configuration not stated) -10.4%
COC(=O)c1ccccc1NC(=O)c1ccc(COc2ccccc2Cl)o1 7.29%
CCOC(=O)c1ccc(NC(=O)c2c(-c3c(F)cccc3Cl)noc2C)cc1 3%
Cc1noc(/C=C/c2cccs2)c1S(=O)(=O)N1CCC(C(=O)Nc2ccc(F)c(Cl)c2)CC1 21%
COc1ccc(C(F)(F)F)cc1NC(=O)c1sc2nc(-c3cccs3)ccc2c1N 15.5%
COC(=O)c1cc2oc3ccccc3c2n1Cc1nc(-c2ccc(OC)cc2)oc1C -6.28%
CCn1c(C(=O)NCCc2ccc(OC)c(OC)c2)cc2sc(Cl)cc21 -13.8%
COc1cccc(C(=O)Nc2cccc(C(=O)OCc3cc(=O)n4nc(C5CC5)sc4n3)c2)c1 -5.11%
